Reference: publication PMC2827191 (Biochemistry, 2009)

Biological target: the molecule itself
Test: AUC

B1: DCC-SSB (G26C mutant of E. coli single-stranded DNA binding protein labeled with IDCC, N-[2-(iodoace (natural protein)
chain: not shown
modifications: diethylaminocoumarin (IDCC adduct) on the cysteine of G26C
stoichiometry N: 4
